The values below come from patent US10576059B2, “Substituted phenylpyrrolecarboxamides with therapeutic activity in HIV” (New York Blood Center, Inc., priority 2014, dated 2020).

pIC50: −log10 of the molar value.

This test concerns the target HIV (pNL4-3) heterodimeric (p66/p51) Reverse Transcriptase (Human immunodeficiency virus type 1 group M subtype B, UniProt P12497). Briefly: HIV-1 Reverse Transcriptase (RT) assay. Here is the method: Purified recombinant HIV (pNL4-3) heterodimeric (p66/p51) Reverse Transcriptase (RT) was purchased from a commercially available source. The assay was performed in 96-well filter plate, where RT activity was determined by the incorporation of radiolabeled deoxyribonucleotides into the newly synthesized DNA strand. […] Briefly, the reaction was carried out in a volume of 50 μl containing 50 mM Tris HCl, pH 7.8, 50 mM KCl, 5 mM MgCl2, 1 mM DTT, 50 μM each of dATP, dCTP, dGTP, 50 nM dTTP, 1 μCi of [^3H] dTTP (70-90 Ci/mM) and 5 nM template/primer. The reaction was initiated by the addition of 10 nM RT.
Compounds were diluted in 100% DMSO to 40 mM. Each compound was diluted in the appropriate reaction buffer for the biochemical assay per protocol. Serially diluted test compounds were added to the reaction followed by the addition of RT. The reaction mixture was incubated at 37° C. for 1 h, and then quenched by the addition of ice-cold trichloroacetic acid (TCA) to the final concentration of 10%. The plate was incubated at 4° C. for 1 h to precipitate the synthesized DNA, then rinsed 3-times with 10% TCA and 1 time with 70% ethanol. After addition of 25 μl scintillation fluid to completely dried wells, radioactivity was counted by MicroBeta scintillation counter (PerkinElmer). The reduction of radioactivity represents the potency of compound inhibition. (See Table 3)

A word on the pIC50: it is −log10 of the IC50, conventionally taken in molar units. A lower pIC50 goes with a high IC50. `Cc1nc(C(CN)NC(=O)c2ccc(-c3ccc(Cl)cc3)[nH]2)sc1CO` (single isomer, unassigned) [Compound 39]: the pIC50 was 5.59.
